Among all 300,000 compounds or so, about 1,100 (0.37%) were called active. The inconclusive results got no clear call from the source; some entries with a clear call stand among them for comparison.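 Rule for the calls: active = inhibition past about -25% in most replicates, and total fluorescence under double the plate's negative control median (limit read from the data); inconclusive = replicates evenly split on the limit, or fluorescence at least double controls; inactive = too little inhibition in most replicates.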
Each molecule was assayed against Zinc finger protein mex-5 (Caenorhabditis elegans) (UniProt Q9XUB2) (assay: MEX-5 zinc finger RNA-binding disruptors – biochemical, C. elegans, fluorescence polarization, MLPCN library, primary screen (AID 1832;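 note: 0% = DMSO and -100% = 5 µM competing unlabeled TCR2 RNA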)). Details: MEX-5/FITC-TCR2 RNA binding, at 10 µM, active compounds read low.
Chain of UniProt Q9XUB2 (Q9XUB2 whole entry, looked up): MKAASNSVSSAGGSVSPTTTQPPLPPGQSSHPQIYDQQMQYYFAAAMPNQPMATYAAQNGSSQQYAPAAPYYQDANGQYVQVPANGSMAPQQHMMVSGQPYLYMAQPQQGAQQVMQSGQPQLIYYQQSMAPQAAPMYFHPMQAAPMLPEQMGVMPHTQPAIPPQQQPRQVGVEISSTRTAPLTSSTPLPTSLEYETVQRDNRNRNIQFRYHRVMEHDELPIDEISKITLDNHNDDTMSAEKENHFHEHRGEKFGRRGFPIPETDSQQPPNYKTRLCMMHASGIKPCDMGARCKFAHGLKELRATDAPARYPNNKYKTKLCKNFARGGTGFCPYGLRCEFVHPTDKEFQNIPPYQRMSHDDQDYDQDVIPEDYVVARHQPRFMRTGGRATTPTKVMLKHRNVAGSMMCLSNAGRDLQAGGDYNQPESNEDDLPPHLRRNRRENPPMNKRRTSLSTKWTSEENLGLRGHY
`O=C1CCC(=O)c2oc3ccccc3c2N1` was tested, and the activity score (negative = inhibition of binding) was inactive: -0.855%.
`CCC1(c2ccccc2)NC(=O)N(CC(=O)Nc2ccc(OC)nc2)C1=O` (stereo not drawn) was tested, and the activity score (negative = inhibition of binding) was inconclusive: -122% [fluorescent].
In the case of `CCCCC1=CC2=C(c3ccco3)C(=O)C(C)(OC(=O)c3ccc(OC)cc3)C(=O)C2=CN1C1CCCC1` (stereo not drawn), the activity score (negative = inhibition of binding) is reported as active: -28.6%.
With `Cc1ccccc1N1CCN(C2CCCN(C(=O)c3ccnn3C)C2)CC1` (stereo not drawn) the activity score (negative = inhibition of binding) was inactive: -1.14%.
In the case of `CCCCOc1ccc(-c2cc(C(F)(F)F)c(C#N)c(SCC(=O)O)n2)cc1`, the activity score (negative = inhibition of binding) is reported as inconclusive: -22.6%.
With `O=C1NC(=S)/C(=C\c2ccc(-c3ccccc3Cl)o2)S1` the activity score (negative = inhibition of binding) was active: -41.7%.
For `O=C(Nc1ccc(S(=O)(=O)Nc2nccs2)cc1)c1cnc(Cl)c(Cl)c1`, the activity score (negative = inhibition of binding) was inconclusive: -86% [fluorescent].
In the case of `CC(C)(C)c1ccc(/C=C2\Oc3cc(O)ccc3C2=O)cc1`, the activity score (negative = inhibition of binding) is reported as active: -27.5%.
In the case of `COc1ccc(-[n+]2c(C)cc(/C=C3\Sc4ccccc4N3C)cc2C)cc1`, the activity score (negative = inhibition of binding) is reported as inconclusive: 9.65% [fluorescent].
`CN(Cc1cn(C)nc1-c1ccccc1F)C1CCOC1` (stereo not drawn) was tested, and the activity score (negative = inhibition of binding) was inactive: -1.4%.
With `Cc1ccc(S(=O)(=O)N2CCCC2)cc1C(=O)N1CCC(C)CC1` the activity score (negative = inhibition of binding) was inactive: 2.87%.
With `CC[C@@]1(O)C(=O)OCc2c1cc1n(c2=O)Cc2cc3c(CN(C)C)c(O)ccc3nc2-1` the activity score (negative = inhibition of binding) was inconclusive: -147% [fluorescent].
With `CCOC(=O)c1c(NC(=S)N2CCCCC2)sc2c1CCN(C(=O)OCC)C2` the activity score (negative = inhibition of binding) was inactive: 1.32%.
For `N#C/C(=C\c1ccc(OC(=O)c2ccc(Cl)s2)cc1)c1nc2ccccc2[nH]1`, the activity score (negative = inhibition of binding) was inconclusive: -6.94%.
For `COc1cccc(C(=O)NCC(=O)NNc2ncnc(N)c2[N+](=O)[O-])c1`, the activity score (negative = inhibition of binding) was active: -32.5%.
For `Cc1ccc(C(=O)NCc2ccco2)cc1S(=O)(=O)N1CCOCC1`, the activity score (negative = inhibition of binding) was inactive: -3.9%.
With `CCN1CCN(c2ccc(S(=O)(=O)N3CCCCC3)cc2NC(=O)c2ccccc2)CC1` the activity score (negative = inhibition of binding) was inactive: -3.11%.
For `O=C1c2ccccc2-c2onc3ccc(NCCCn4ccnc4)c1c23`, the activity score (negative = inhibition of binding) was inconclusive: -120% [fluorescent].
With `Cc1n[nH]c(C)c1S(=O)(=O)N1CCCC(C(=O)Nc2ccc(Br)cc2)C1` (stereo not drawn) the activity score (negative = inhibition of binding) was inconclusive: -24.4%.
For `Cc1nc(N2CCN(Cc3ccccc3)CC2)c(C#N)c2c1COC(C)(C)C2`, the activity score (negative = inhibition of binding) was active: -33.5%.
With `Cc1c(Cl)cccc1NC(=S)N1CCN(C(=O)C2CCCO2)CC1` (stereo not drawn) the activity score (negative = inhibition of binding) was inconclusive: -16.4%.
In the case of `CCCCCCCCOc1ccc(C2OC34CCCCC3C(C#N)(C#N)C2(C#N)C(=N)O4)cc1` (stereo not drawn), the activity score (negative = inhibition of binding) is reported as active: -87.2%.
For `CN(C)c1ccc(/C=C(\NC(=O)c2ccccc2)C(=O)NCc2ccncc2)cc1`, the activity score (negative = inhibition of binding) was inactive: 1.24%.
For `Cc1ccc2[nH]cc(/C=C/c3cc[n+](C)cc3)c2c1`, the activity score (negative = inhibition of binding) was inconclusive: 42% [fluorescent].
For `O=C(CSc1nnc(-c2ccc(O)cc2)o1)Nc1cccc(O)c1`, the activity score (negative = inhibition of binding) was inactive: 1.13%.
For `CC(=O)Nc1ccc(S(=O)(=O)NCCC(=O)OCc2csc(CC(=O)Nc3ccccc3C)n2)cc1`, the activity score (negative = inhibition of binding) was inactive: -1.87%.
In the case of `COc1ccc(S(=O)(=O)Nc2ccc(O)c(Sc3ncn[nH]3)c2)cc1`, the activity score (negative = inhibition of binding) is reported as inconclusive: -24.8%.
For `COc1cccc(C(=O)NNc2nc(C)cc(C)n2)c1`, the activity score (negative = inhibition of binding) was inconclusive: -22.4%.
In the case of `Nc1c(C(=O)C2CC2)sc2nc(-c3cccs3)cc(C(F)(F)F)c12`, the activity score (negative = inhibition of binding) is reported as inconclusive: -27.4% [fluorescent].
`COCCN1CCC(CNCc2cn[nH]c2-c2ccc(C)c(C)c2)C1` (stereo not drawn) was tested, and the activity score (negative = inhibition of binding) was inconclusive: -24.5%.
With `O=C(OCCN1C(=O)c2cccc3c(N4CCOCC4)ccc(c23)C1=O)c1ccccc1Cl` the activity score (negative = inhibition of binding) was inconclusive: -114% [fluorescent].
In the case of `O=C(Nc1cccc(O)c1)N1CCOCC1`, the activity score (negative = inhibition of binding) is reported as inactive: 1.61%.
`Cc1c2cc(O)c(=O)cc-2oc2cc(O)c(O)cc12` was tested, and the activity score (negative = inhibition of binding) was inconclusive: -24.5%.
With `O=C(O)CCNc1cc(N2CCN(C(=O)c3ccco3)CC2)c2noc3c2c1C(=O)c1ccccc1-3` the activity score (negative = inhibition of binding) was inconclusive: 7.48% [fluorescent].
With `CC(C)n1cc(/C=C/c2cc[n+](C)cc2)c2ccccc21` the activity score (negative = inhibition of binding) was inconclusive: 34.5% [fluorescent].
With `Clc1cccc(CSc2nc3ccncc3[nH]2)c1` the activity score (negative = inhibition of binding) was active: -52%.
For `CN(C(=O)c1ccc(Cl)c([N+](=O)[O-])c1)C1(C)CCS(=O)(=O)C1` (stereo not drawn), the activity score (negative = inhibition of binding) was inactive: -1.44%.
In the case of `CN1/C(=C\C=C2/SC(=S)N(CC(=O)O)C2=O)C(C)(C)c2ccccc21`, the activity score (negative = inhibition of binding) is reported as inconclusive: 81.3% [fluorescent].
`C1=C(c2ccccc2)Nc2nnnn2C1c1cccs1` (stereo not drawn) was tested, and the activity score (negative = inhibition of binding) was inconclusive: -21%.
In the case of `N=c1c(C(=O)NC2CCCCC2)cc2c(=O)n3ccccc3nc2n1Cc1ccc(F)cc1`, the activity score (negative = inhibition of binding) is reported as inconclusive: -20.6%.
`Cc1ccc2[nH]c3c(c2c1)CN(C(=O)CN1c2ccc(F)cc2CCC1C)CC3` (stereo not drawn) was tested, and the activity score (negative = inhibition of binding) was inactive: 0.138%.
For `Cc1cc[n+](-c2[nH]c(=O)sc2/C=N/N=C(\[O-])c2ccccc2)cc1C`, the activity score (negative = inhibition of binding) was inconclusive: -106% [fluorescent].
With `Cc1cccn2c(=O)c3cc(C#N)c(=NC(=O)c4cccs4)n(CCCOC(C)C)c3nc12` the activity score (negative = inhibition of binding) was active: -44.6%.
`O=S(=O)(c1ccc(-c2csc(=Nc3ccccc3)n2CCCN2CCOCC2)cc1)N1CCOCC1` was tested, and the activity score (negative = inhibition of binding) was inactive: -0.0701%.
`CCOC(=O)C1=NN(c2ccccc2)C2C(=O)N(c3ccccc3OC)C(=O)C12` (stereo not drawn) was tested, and the activity score (negative = inhibition of binding) was inactive: -2%.
In the case of `Cc1ccc2c(ccc(=S)n2C)c1`, the activity score (negative = inhibition of binding) is reported as inactive: 1.19%.
For `Cn1c(=O)[nH]c(=O)c2c1nc(N/N=C/C(Br)=C/c1ccccc1)n2CCO`, the activity score (negative = inhibition of binding) was inconclusive: -19.3%.
`Cc1ccccc1OCC(=O)N/N=C/c1ccc([N+](=O)[O-])o1` was tested, and the activity score (negative = inhibition of binding) was inactive: 3.05%.
`CCN(CC(=O)NCc1ccc(Cl)cc1)C(=O)COc1ccc(Cl)cc1Br` was tested, and the activity score (negative = inhibition of binding) was inactive: -2.2%.
`CCOC(=O)CNC(=O)CSc1nc(Cc2ccccc2)nc2ccccc12` was tested, and the activity score (negative = inhibition of binding) was inactive: -0.144%.
In the case of `Cc1cccc(S(=O)(=O)C(C#N)c2nc3ccccc3nc2N2CC(C)OC(C)C2)c1` (stereo not drawn), the activity score (negative = inhibition of binding) is reported as inconclusive: -100% [fluorescent].
`CC(C(=O)NC1CC1)c1ncc(C(F)(F)F)cc1Cl` (stereo not drawn) was tested, and the activity score (negative = inhibition of binding) was inactive: 0.499%.
With `O=c1oc2ccc(Cl)cc2nc1/C=C(\O)c1ccco1` the activity score (negative = inhibition of binding) was inconclusive: -20.9%.
